Source: PMC9663165
These are yes or no findings as the source states them, for the method shown. Sequences can lack the tags named with a protein.

T1: ISLR2-GFP (human), Q6UXK2
T1 chain: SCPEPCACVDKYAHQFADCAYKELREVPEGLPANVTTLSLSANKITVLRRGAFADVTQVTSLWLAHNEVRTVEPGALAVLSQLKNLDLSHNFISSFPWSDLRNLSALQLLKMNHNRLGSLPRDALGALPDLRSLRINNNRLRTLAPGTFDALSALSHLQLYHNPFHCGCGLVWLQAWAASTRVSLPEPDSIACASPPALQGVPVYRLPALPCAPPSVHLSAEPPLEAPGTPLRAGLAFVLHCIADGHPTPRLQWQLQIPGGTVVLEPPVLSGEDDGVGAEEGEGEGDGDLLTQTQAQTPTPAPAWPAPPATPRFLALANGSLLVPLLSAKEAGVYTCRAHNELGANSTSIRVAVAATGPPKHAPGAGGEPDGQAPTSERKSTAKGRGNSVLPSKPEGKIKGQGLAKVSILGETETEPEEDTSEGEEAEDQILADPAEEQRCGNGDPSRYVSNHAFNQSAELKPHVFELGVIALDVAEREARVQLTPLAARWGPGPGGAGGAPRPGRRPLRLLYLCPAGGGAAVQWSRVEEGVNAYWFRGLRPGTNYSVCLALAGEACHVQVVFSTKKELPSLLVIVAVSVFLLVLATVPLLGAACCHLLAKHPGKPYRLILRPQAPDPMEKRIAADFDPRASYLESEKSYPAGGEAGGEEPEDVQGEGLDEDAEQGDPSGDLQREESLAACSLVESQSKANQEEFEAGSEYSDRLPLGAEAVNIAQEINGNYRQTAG

T2: ISLR-GFP (human), O14498
T2 chain: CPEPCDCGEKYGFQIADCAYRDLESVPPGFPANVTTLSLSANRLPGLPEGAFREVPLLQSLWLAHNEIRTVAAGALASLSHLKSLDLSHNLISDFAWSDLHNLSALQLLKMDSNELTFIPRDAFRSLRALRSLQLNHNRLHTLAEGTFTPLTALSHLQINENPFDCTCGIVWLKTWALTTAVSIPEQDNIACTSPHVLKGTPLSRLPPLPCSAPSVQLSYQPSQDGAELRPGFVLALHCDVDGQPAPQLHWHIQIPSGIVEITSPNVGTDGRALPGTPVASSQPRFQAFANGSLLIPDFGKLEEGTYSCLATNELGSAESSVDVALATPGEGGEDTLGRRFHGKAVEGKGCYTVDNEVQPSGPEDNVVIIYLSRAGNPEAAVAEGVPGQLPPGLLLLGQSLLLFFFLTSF


What was measured:
[1] = biological target: T1, ISLR2-GFP (human), Q6UXK2; test: flow cytometry on cells; high-throughput cell-cell screen: HEK293F query cells (C-terminal mCherry fusion) mixed 1:1 in 96-well format with cells each expressing one member of the Ig/TNFR superfamily library (C-terminal GFP); double-positive events as % bound; PBS 0.2% BSA, pH 7.4; settings: remark: other sources report otherwise
ISLR-GFP (human), O14498 = biological target: T2, ISLR-GFP (human), O14498; test: as above; settings: remark: other sources report otherwise

| binding [1] | binding (ISLR-GFP (human), O14498) | Binder |
| --- | --- | --- |
| no binding |  | human B7-1-mCherry fusion protein, P33681 35-288 (ligand) VIHVTKEVKEVATLSCGHNVSVEELAQTRIYWQKEKKMVLTMMSGDMNIWPEYKNRTIFDITNNLSIVILALRPSDEGTYECVVLKYEKDAFKREHLAEVTLSVKADFPTPSISDFEIPTSNIRRIICSTSGGFPEPHLSWLENGEELNAINTTVSQDPETELYAVSSKLDFNMTTNHSFMCLIKYGHLRVNQTFNWNTTKQEHFPDNLLPSWAITLISVNGIFVICCLTYCFAPRCRERRRNERLRRESVRPV |
|  | no binding | human p75 neurotrophin receptor-GFP, P08138 29-427 (receptor) KEACPTGLYTHSGECCKACNLGEGVAQPCGANQTVCEPCLDSVTFSDVVSATEPCKPCTECVGLQSMSAPCVEADDAVCRCAYGYYQDETTGRCEACRVCEAGSGLVFSCQDKQNTVCEECPDGTYSDEANHVDPCLPCTVCEDTERQLRECTRWADAECEEIPGRWITRSTPPEGSDSTAPSTQEPEAPPEQDLIASTVAGVVTTVMGSSQPVVTRGTTDNLIPVYCSILAAVVVGLVAYIAFKRWNSCKQNKQGANSRPVNQTPPPEGEKLHSDSGISVDSQSLHDQQPHTQTASGQALKGDGGLYSSLPPAKREEVEKLLNGSAGDTWRHLAGELGYQPEHIDSFTHEACPVRALLASWATQDSATLDALLAALRRIQRADLVESLCSESTATSPV |
